# Experimental data: the supplement of paper PMC11417369
# ± gives the standard deviation of the averaged measurements. This is one part of the list.
# System: PfAP2-I AP2 domain 3 (GST-tagged)
# Assay: gcPBM binding intensity (ln(normalized median fluorescence intensity)); higher = stronger DNA binding
# Method in brief: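 Binding intensity values are the highest Masliner-normalised natural-log median intensity among replicate spots of either probe orientation. The binding step lasted 1 h in 1× PBS with 1% milk, 0.2 mg/ml BSA, 0.5% salmon testes DNA and 0.03% Triton X-100, using GST-tagged P. falciparum DNA-binding domains expressed in E. coli on an Agilent 4 × 180k array of primer-extended double-stranded 36-bp intergenic genomic probes plus negative controls. Alexa488 anti-GST antibody and a 488 nm scan detected bound protein.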
row,Sequence,gcPBM binding intensity (ln)
1,TATAAGTAGATAAGGGTGCACAATATAAATATATAG,11.55 ± 0.021
2,CTTTTTGAAATATTAACACACATTTTGTTAATGAAT [CACACA_site6087],7.65 ± 0.58
3,ATATATATACATATAACACACACATATATATATATA [CACACA_site8827],9.32 ± 0.61
4,TTGTATTTATTTATGGGAGGATTATAATCATTGTAG [GTGCAC_negctrl_site268],7.79 ± 0.42
5,TAATTCACATTTTATACACACATTCGAACCTTTTTT [CACACA_site3341],7.79 ± 0.7
6,ATTTTTATTAGTTATTGTACTTATTATTTATTAATT [XGTACX_site2568],7.89 ± 0.4
7,TATAGATATATACGGTGTACATACATAAAAAAAAAA [XGTACX_site1648],8.02 ± 0.47
8,TATAAAGAAATCATTACACACAAATAAATACATACA [CACACA_site2675],7.9 ± 0.27
9,TATAGTCAACTAGTCACACATATAATTATATATATA [CACACA_site5872],8.4 ± 0.49
10,TATTTTTTTTGTCATATATAAGAAACGCTCTTCTTT [TGCATGCA_negctrl_site127],7.5 ± 0.79
11,ATATTTATATTTTCATGTACGTATTTTTATATATAT [XGTACX_site8478],8.18 ± 0.49
12,TGAAATAAAATTTGTACACACATATTTATTTATATA [CACACA_site6421],7.62 ± 0.27
13,TGCATTATATTAAATTTTTTATTTGTTGATGTTATA [GTGCAC_negctrl_site371],7.75 ± 0.33
14,AAATAAAAGATATTTTTACACACTTTTGATGAGATC [CACACA_site9000],7.62 ± 0.6
15,TAAAGTACAGGAGTAAATTGAAAAAAAAAAAAAAAA [CACACA_negctrl_site1410],8.03 ± 0.45
16,ATAAATAAATAAATACGTACATATATATATATATAT [XGTACX_site8838],9.19 ± 0.38
17,TATAATATTCCTTTTTAACACACATATGAACAAATA [CACACA_site7932],7.87 ± 0.44
18,ATACATATATTTTTATGTACATATATTTTTTTTGTA [XGTACX_site4546],7.7 ± 0.37
19,TTGATATCTTTTTTTTGTACATATATTTATAAGTAA [XGTACX_site3538],7.71 ± 0.46
20,TTTTTTTAAATTATATGTACATAATTTTAATTTTAT [XGTACX_site5086],7.74 ± 0.36
21,TTTTAGAGTGATATATATTAACTTTTAATAAAAAAA [CACACA_negctrl_site611],7.63 ± 0.3
22,AAAATATAAGCCACTACACACATATATAAATGTATA [CACACA_site2639],8.54 ± 0.29

row,Sequence,gcPBM binding intensity (ln)
1,GTTATACACATATATACACACATATGTAGATATATA [CACACA_site7529],7.96 ± 0.3
2,TTGTACATCTTTTGCACACGTAATGTTATTAAAATA [CACACA_site4827],9.38 ± 0.071
3,TGTATATTTGTTGTTACACACATATATTTTTTTTTT [CACACA_site128],7.65 ± 0.47
4,TTATAACAAAAAATTAAAGAAAGAGAATAAGTGAAA [CACACA_negctrl_site975],8 ± 0.59
5,AGGTCCTACACCAATAAATATCATATATATATTATA [CACACA_negctrl_site568],7.51 ± 0.55
6,TTAACTATAATAAAATGTACATATGTAACATATATA [XGTACX_site7790],7.58 ± 0.44
7,ATGATTTTTTTTATTTTTTAGCTAGAGCTAGCTTAT [CACACA_negctrl_site433],7.6 ± 0.68
8,TATGGAAGAAAATATACACACAAAAAAAAAAAATGG [CACACA_site4924],8.22 ± 0.46
9,AACACTCAAAAAAATTTAAATAAAAAAAAAAAAAAA [CACACA_negctrl_site680],7.94 ± 0.83
10,TATGAATGCTTTTATGCACACGTACAAAAATATTAT [CACACA_site8851],9.74 ± 0.5
11,ATATGTTAAAAATTCACACAAAAAAGTATACAGATA [CACACA_site4179],7.66 ± 0.47
12,TTACCTATTCTAAAATGTACACATTATATATGTGCT [XGTACX_site5776],7.82 ± 0.45
13,ACATGTTTCATATGTTGTACTAACTTAAATATAAAT [XGTACX_site6412],7.8 ± 0.52
14,CCAACATATATTATCACACACATATATATATATATA [CACACA_site2016],9.46 ± 0.68
15,ATATTAGATTAATTTACACACAGAAAATGAGATTTT [CACACA_site541],7.59 ± 0.45
16,AATAAACAAATATGTACACACATATACCTATAAATA [CACACA_site7358],7.82 ± 0.43
17,TAGAGTATATATAAATGTACATATTTTATGCTAATT [XGTACX_site7821],7.7 ± 0.44
18,AAAAAATTAAATAATTACAAAAAAATAAAATAAAAA [GTGCAC_negctrl_site638],7.5 ± 0.59
19,AAAAATAATGCACATATATATAATATGTATATGTAT [CACACA_negctrl_site443],11 ± 0.6
20,ATGTTTACATATTAGGGTACATAATAAATTGCATAT [XGTACX_site6712],7.99 ± 0.47
21,TTTTAAACAAGACACACACACATATATATATATATA [CACACA_site925],9.47 ± 0.54
22,TTATTGTAAATATATGCATGTGCAAAATGAAAAAAA [TGCATGCA_site399],9.8 ± 0.11
